How the values were obtained:
[1] = target: UFV180501 H2 A/Singapore/1/57 (influenza A H2 A/Singapore/1/57); assay: AlphaLISA binding curves, culture supernatant
[2] = target: UFV180498 H1 A/Puerto Rico/8/1934 (influenza A H1 A/Puerto Rico/8/1934); assay: AlphaLISA binding curves, culture supernatant

B1: MD3606 (Fc fusion)
chain: EVQLVESGGGLVQPGGSLRLSCAVSISIFDIYAMDWYRQAPGKQRDLVATSFRDGSTNYADSVKGRFTISRDNAKNTLYLQMNSLKPEDTAVYLCHVSLYRDPLGVAGGMGVYWGKGALVTVSSGGGGSGGGGSEVQLVESGGGLVQAGGSLKLSCAASGRTYAMGWFRQAPGKEREFVAHINALGTRTYYSDSVKGRFTISRDNAKNTEYLEMNNLKPEDTAVYYCTAQGQWRAAPVAVAAEYEFWGQGTQVTVSSGGGGSGGGGSEVQLVESGGGLVQPGGSLRLSCAATGFTLENKAIGWFRQTPGSEREGVLCISKSGSWTYYTDSMRGRFTISRDNAENTVYLQMDSLKPEDTAVYYCATTTAGGGLCWDGTTFSRLASSWGQGTQVTVSSGGGGSGGGGSEVQLVESGGGLVQPGGSLKLSCAASGFTFSTSWMYWLRQAPGKGLEWVSVINTDGGTYYADSVKDRFTISRDNAKDTLYLQMSSLKSEDTAVYYCAKDWGGPEPTRGQGTQVTVSS[sequence of human IgG1 Fc not given]
B1: binds [1]; binds [2].

Source: patent publication US20200377555A1 (Janssen / Centocor, published 2020)
